Reference: publication PMC4336329 (PLoS ONE, 2015)
Out of some 310,000 compounds screened, about 2,200 (0.71%) showed an effect of 50% or more. Effects have a minus sign here. The list shows a part of the results.

molecular target: human ether-à-go-go-related gene (hERG) potassium channel (human, UniProt Q12809); assay: primary screen, population patch clamp on CHO cells stably expressing hERG
Sequence (Q12809 whole entry, looked up): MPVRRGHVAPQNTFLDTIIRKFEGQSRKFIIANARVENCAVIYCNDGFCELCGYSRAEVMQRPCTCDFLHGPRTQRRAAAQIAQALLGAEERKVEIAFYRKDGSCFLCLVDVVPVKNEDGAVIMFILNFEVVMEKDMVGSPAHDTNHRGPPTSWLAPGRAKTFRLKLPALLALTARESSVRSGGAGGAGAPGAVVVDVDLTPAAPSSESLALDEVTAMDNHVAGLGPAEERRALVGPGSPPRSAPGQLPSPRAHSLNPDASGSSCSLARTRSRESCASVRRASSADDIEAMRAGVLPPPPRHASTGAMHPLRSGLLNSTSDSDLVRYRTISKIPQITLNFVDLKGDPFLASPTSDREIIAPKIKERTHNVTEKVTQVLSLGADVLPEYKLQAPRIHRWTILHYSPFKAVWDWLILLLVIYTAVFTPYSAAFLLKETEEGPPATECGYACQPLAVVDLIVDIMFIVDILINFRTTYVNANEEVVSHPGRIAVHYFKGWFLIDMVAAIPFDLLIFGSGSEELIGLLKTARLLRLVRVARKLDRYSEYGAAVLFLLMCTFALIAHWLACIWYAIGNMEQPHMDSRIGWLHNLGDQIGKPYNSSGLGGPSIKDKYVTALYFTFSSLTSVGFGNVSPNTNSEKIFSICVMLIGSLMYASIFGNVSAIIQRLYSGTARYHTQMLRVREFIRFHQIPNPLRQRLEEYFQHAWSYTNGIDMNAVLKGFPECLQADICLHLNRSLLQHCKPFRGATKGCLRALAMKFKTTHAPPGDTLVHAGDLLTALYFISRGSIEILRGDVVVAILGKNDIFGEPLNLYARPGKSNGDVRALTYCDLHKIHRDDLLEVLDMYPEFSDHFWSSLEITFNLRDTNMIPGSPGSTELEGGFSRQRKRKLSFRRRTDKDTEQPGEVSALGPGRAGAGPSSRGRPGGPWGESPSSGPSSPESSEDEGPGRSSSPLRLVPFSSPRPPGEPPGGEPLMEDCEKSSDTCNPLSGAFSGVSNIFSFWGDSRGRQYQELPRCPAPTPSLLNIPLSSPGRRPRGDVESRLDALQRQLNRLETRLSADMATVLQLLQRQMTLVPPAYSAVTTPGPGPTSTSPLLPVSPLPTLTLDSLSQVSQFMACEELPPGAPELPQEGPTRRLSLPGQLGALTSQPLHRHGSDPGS

| Compound | hERG current change (%, negative = inhibition) at 1uM [%] |
| --- | --- |
| Cc1nn(CCCC(=O)Nc2cccnc2Cl)c(C)c1[N+](=O)[O-] | 13.3 |
| CCCc1nnc(SCC(=O)O)n1/N=C/c1ccc2c(c1)OCO2 | -1.6 |
| COc1cccc(-c2nc(CS(=O)(=O)CC(=O)NC3CCCCCC3)c(C)o2)c1 | 12.1 |
| CC(C)(C)C(=O)Nc1ccc(C(=O)N/N=C/c2ccccc2OC(=O)c2ccccc2)cc1 | 12.3 |
| Cc1cc(-c2cc(-c3ccccc3)on2)nc(NCC2CC2)n1 | 10.1 |
| Cc1cc(NC(=O)c2cc(-c3ccc(O)cc3)on2)no1 | 8.05 |
| COc1ccc2c(Cl)c(C(=O)NCC3CCCO3)sc2c1Cl (stereo not shown) | 12.7 |
| Cc1ccccc1Sc1c(C#N)c(-c2ccccc2)nn1C | 13 |
| Cc1cccc(-n2c(SCC(=O)NC3CCCC3)nnc2-c2ccoc2C)c1 | -68.6 |
| CC1=C(C(N)=O)C(c2ccc(Cl)cc2)NC(=O)N1 (stereo not shown) | -0.388 |
| CCCCn1c(=S)[nH]c2cc(S(=O)(=O)N3CCCCC3)ccc21 | 10.8 |
| COc1ccc(OC)c(NC(=O)C2CCN(S(=O)(=O)c3ccc4c(c3)CC(C)N4C(C)=O)CC2)c1 (stereo not shown) | -7.33 |
| COc1ccc(SCC(=O)Nc2ccccc2Cl)cc1 | 14.6 |
| Cn1nc([N+](=O)[O-])nc1Oc1ccccc1 | -11.2 |
| Oc1ccccc1-c1nc2c3ccccc3c3ccccc3c2[nH]1 | 9.24 |
| COc1cccc(OC)c1C(=O)Nc1c(C(=O)N2CCN(c3ccccn3)CC2)oc2ccccc12 | 15.8 |
| Cc1cnc(C(=O)OCC(=O)N=c2sccn2Cc2ccccc2Cl)cn1 | 14 |
| COc1ccc([N+](=O)[O-])cc1NC(=O)Cc1noc2ccccc12 | 4.32 |
| CN1C(=O)CC(N2CCN(CC(N)=O)CC2)C1=O (stereo not shown) | 16.4 |
| CC(=O)N(CC(O)CO)c1c(I)c(C(=O)NCC(O)CO)c(I)c(C(=O)NCC(O)CO)c1I (stereo not shown) | 3.85 |
| O=C(CNC(=O)c1ccccc1F)NNC(=O)c1ccccc1O | 0.202 |
| Cc1ccc(C(=O)NC2CCCc3ccccc32)o1 (stereo not shown) | -7.4 |
| N=c1c(C(=O)NCc2ccco2)cc2c(=O)n3ccccc3nc2n1Cc1ccccc1 | -81.6 |
| CN1CCc2c(sc(NC(=O)Cc3ccccc3)c2C(N)=O)C1.Cl | -0.304 |
| COc1cccc(CNC(=O)CCNS(=O)(=O)c2ccc(C)cc2)c1 | 6.83 |
| CCOC1(C)OCC(=O)[C@]2(CCC3C4CCC5=CC(=O)C=CC5(C)C4C(=O)CC32C)O1 (stereo partly shown) | 10.6 |
| S=c1[nH]nc(-c2ccc(Cl)cc2)n1/N=C/c1ccco1 | 14.7 |
| Cc1cc(=O)[nH]c(SCc2cc(=O)n3nc(C)sc3n2)n1 | 11.6 |

| Compound | hERG current change (%, negative = inhibition) at 1uM [%] |
| --- | --- |
| C[C@H]1CCC(=O)N([C@H](CSc2ccccc2)Cc2ccccc2)CC1 | 2.76 |
| Cc1cc(C(F)(F)F)nc(NCc2ccc(F)cc2)n1 | 17.9 |
| O=C(CCn1c(=O)oc2ccccc21)N1CCC2(CC1)OCCO2 | 13.2 |
| C#CCCCc1nc2ccccc2c(=O)n1N | 14.6 |
| CCCSc1ccc([C@@H]2[C@@H]3C(=O)N(C)C(=O)[C@@H]3[C@]3(C(=O)OC)CCCN23)cc1OC.O=C(O)C(F)(F)F | -4.11 |
| Cn1c(CCCOc2ccc(Cl)cc2Cl)nnc1SCC(=O)Nc1nccs1 | -7.17 |
| COC(=O)[C@@]12CCCCN1[C@H](c1ccc(-c3cccc(Cl)c3)c(OC)c1)[C@H]1C(=O)N(C)C(=O)[C@H]12.O=C(O)C(F)(F)F | -0.257 |
| O=C(Nc1cccc2ccccc12)/C(=C/c1ccc([N+](=O)[O-])cc1)NC(=O)c1ccccc1 | -8.4 |
| CC(Nc1ccccc1)C(=O)Nc1ccc(F)cc1 (stereo not shown) | -14.8 |
| CCN(CC)S(=O)(=O)c1cccc(NC(=O)CN(C)C2CCCCC2)c1 | 13.9 |
| Cc1ccc(NC(=O)CN(C)Cc2ccc(F)cc2)c([N+](=O)[O-])c1 | 8.08 |
| COc1cc(S(=O)(=O)NCC2CCCO2)c(OC)cc1Cl (stereo not shown) | 6.04 |
| COc1ccc(-c2csc(NC(=O)C3=COCCO3)n2)c(OC)c1 | -5.4 |
| O=C(/C=C/c1ccccc1Cl)N1CCN(c2ncccn2)CC1 | 7.12 |
| CCC(CC)NC(=O)C1CCN(S(=O)(=O)c2cccs2)CC1 | 0.487 |
| CN(CC1CCOCC1)C(=O)CC1C(=O)NCCN1C/C=C/c1ccccc1 (stereo not shown) | 10.6 |
| CCOC(=O)c1oc2c(O)c(O)ccc2c(=O)c1-c1nncn1-c1ccccc1 | 10.4 |
| O=C(NCc1cccs1)C1CCCN1C(=O)Nc1ccccc1 (stereo not shown) | 15 |
| CNC(=O)c1cccn(Cc2ccc(C(F)(F)F)cc2)c1=O | 25.7 |
| COc1cc(CNC(=O)CCCC/C=C\C(C)C)ccc1O | 10.9 |
| Cc1cc(Cl)ccc1OCC(=O)NNC(=O)c1ccco1 | 16.8 |
| Nc1ncnc2c1ncn2[C@@H]1O[C@H](CO)C[C@@H]1O.O | -1.06 |
| Cc1ccc(-c2nnc(Nc3ccc(C(=O)N(C)C)cc3)c3ccccc23)cc1S(N)(=O)=O | 12.3 |
| O=C(C1CCCN(S(=O)(=O)c2ccccc2[N+](=O)[O-])C1)N1CCN(c2ccccc2)CC1 (stereo not shown) | -6.27 |
| Cc1ccc2c(c1)nnn2C1CCN(CC(=O)Nc2ccc(F)cc2)CC1 | -20.7 |
| Cc1cc(C)cc(NC(=O)CCc2nc3sc4c(c3c(=O)[nH]2)CCCC4)c1 | -7.22 |
| CC(=O)Nc1cccc(C(=O)N/N=C/c2ccc(C)o2)c1 | 15.7 |
